From a compilation of properties of binary mixtures (doi:10.1007/s10953-018-0729-9)
The densities may have been worked out from excess volumes.

Test: xn = mol fraction of the nth substance listed
Settings: 101.3 kPa

CCCC[n+]1ccn(C)c1.F[P-](F)(F)(F)(F)F + O=C1CCCN1
x1 = 1
Settings | mass density [kg/m3]
303.15 K | 1364.6
308.15 K | 1360.4
313.15 K | 1356.2
318.15 K | 1352.1
323.15 K | 1348

O=C1CCCN1 + CCCC[n+]1ccn(C)c1.F[P-](F)(F)(F)(F)F
mass density [kg/m3]
Settings | 303.15 K | 308.15 K | 313.15 K | 318.15 K | 323.15 K
x2 = 0 | 1103.1 | – | 1094.9 | 1090.8 | –
x2 = 0.0494 | 1134.2 | – | 1126.6 | 1122.8 | 1118.9
x2 = 0.1025 | 1161.5 | 1157.9 | 1154.2 | 1150.4 | –
x2 = 0.1503 | 1182.2 | 1178.6 | 1174.9 | 1171.1 | 1167.4
x2 = 0.2215 | 1209 | – | 1201.6 | 1197.8 | 1193.9
x2 = 0.3376 | 1249.1 | 1245.4 | 1241.5 | 1237.7 | 1233.8
x2 = 0.4502 | 1281.9 | 1278.1 | – | 1270.3 | 1266.4
x2 = 0.5654 | 1309.4 | 1305.6 | – | 1297.7 | 1293.8
x2 = 0.6527 | 1326.1 | 1322.2 | 1318.3 | 1314.4 | 1310.5
x2 = 0.7421 | – | 1335.6 | 1331.8 | 1327.8 | 1323.9
x2 = 0.8295 | 1348.9 | 1345.1 | 1341.3 | – | –
x2 = 0.8622 | 1351.8 | 1348 | – | 1340.3 | 1336.4
x2 = 0.9019 | 1355.2 | 1351.3 | 1347.5 | 1343.6 | 1339.7
x2 = 0.9495 | – | 1355.4 | 1351.5 | 1347.5 | –
